The whole screen tested about 110,000 compounds, of which about 40 (0.04%) were called active. Inconclusive means that the source gave no clear call. Such entries were picked first, then a sample of the others. Calls come from the whole dose curve; as a rule, active = well fitted curve in the direction sought with a large enough effect in the signal ratio (not every such curve was filed as active); inconclusive = small, poorly fitted or top-dose-only effect, or a change in a side signal; inactive = flat fitted curve, though single readings scatter; the % refers to the signal ratio. Where the call is inconclusive, the potency comes from a doubtful curve fit.
Assay: IkB Signaling;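 for IkBa stabilization activation: 0% = basal untreated cells and 100% = reference inhibitor full response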
Details: ABC-DLBCL IkBa-CBG/CBR dual luciferase ratio (green luciferase fused to IkBa over red control in OCI-Ly3 lymphoma cells), 4 h; IkBa stabilization activation: at 57.1 µM (top of the series), scaled: untreated 0%, proteasome inhibitor 100% unless noted
How it was run: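 In this assay, an IκBα–CBG68 fusion accumulates when IKK-driven degradation is blocked; native CBR normalizes for cell number. OCI-Ly3 cells were treated 4 h with compound and doxycycline, then green and red light read after Chroma-Glo addition.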
Potency is the fitted concentration of half-maximal effect.

SMILES | IkBa stabilization activation | Potency
COC(=O)C1=C(N)Oc2cc(C)n(CCc3ccccc3)c(=O)c2C1c1cccnc1 (stereo unspecified) | inconclusive: 10.8% [signal inhibitor] | –
COc1ccc(-c2cc3ccc(O)c(CN4CCC(C)CC4)c3oc2=O)cc1 | inactive: -2.16% | –
O=C(Nc1ccc2oc(-c3cccnc3)nc2c1)c1ccc(-c2ccccc2OC(F)(F)F)o1 | inconclusive: 8.78% [signal inhibitor] | –
CC1=C(c2ccc(C)cc2)S(=O)(=O)NC1=NCCCN1CCN(c2ccccc2F)CC1 | inactive: -0.0877% | –
COc1ccccc1CNc1cc(-c2ccccc2OC)ncn1 | inactive: 15.4% [at 11.4 µM, scaled: untreated 0%, proteasome inhibitor 100%] | –
O=C(O)c1ccc(Nc2nc3ccccc3n3cnnc23)cc1 | – | inconclusive: 3.98 µM [signal inhibitor, partial curve]
CC(=O)Nc1nonc1-c1nnc(SCC(=O)Nc2cccc(F)c2)n1-c1ccccc1 | inconclusive: 3.49% [signal inhibitor] | –
Cc1ccc(N2CCN(S(=O)(=O)c3cc(C(=O)Nc4cc(Cl)cc(Cl)c4)ccc3F)CC2C)cc1 (stereo unspecified) | inconclusive: -1.64% [signal inhibitor] | –
COC(=O)c1scc(-c2ccc(C)cc2)c1S(=O)(=O)Nc1ccc(F)cc1F | inconclusive: -0.787% [signal inhibitor] | –
c1ccc(NCc2nc(-c3ccccc3)no2)cc1 | inconclusive: 6.51% [signal inhibitor] | –
O=C(Nc1ccc(N2CCOCC2)cc1)Nc1ccc2nc(-c3ccco3)c(-c3ccco3)nc2c1 | inconclusive: 5.7% [signal inhibitor] | –
O=C(OCc1cc(=O)n2c(n1)sc1ccccc12)c1ccc2c(=O)n3c(nc2c1)CCC3 | inconclusive: 15.8% [signal inhibitor] | –
COc1ccccc1N1CCN(c2ccc(=O)n(CC(=O)NCc3ccc(OC(C)C)cc3)n2)CC1 | inconclusive: 3.71% [signal inhibitor] | –
O=C(Nc1ccc(Br)cc1)c1ccc(F)c(S(=O)(=O)N2CCCc3ccccc32)c1 | inconclusive: 1.14% [signal inhibitor] | –
CC(C)Cn1c(=O)c2sccc2n2c(CCCC(=O)NCCc3ccc(Cl)cc3)nnc12 | inactive: 4.7% | –
O=C(COc1ccc(Br)cc1Cl)Nc1ncn[nH]1 | inactive: -2.05% | –
c1ccc2c(c1)CCN(c1nc3cc4c(cc3s1)OCO4)C2 | – | inconclusive: 15.8 µM [signal inhibitor, partial curve]
N#Cc1cccc(-c2nccc(NCc3ccccc3)n2)c1 | inactive: -1.27% [at 11.4 µM, scaled: untreated 0%, proteasome inhibitor 100%] | –
COc1ccc(OCC(=O)Nc2ccc3c(c2)nc(CCNC(=O)c2ccco2)n3C)cc1 | inactive: 1.67% | –
Cc1ccc(Cl)cc1N1CCN(C(=O)c2ccc(CN3CCOCC3)cc2)CC1 | inconclusive: 1.55% [signal inhibitor] | –
c1ccc(-c2nc(N3CCCCCC3)nc(-n3ccnc3)n2)cc1 | inactive: 1.84% | –
CCOC(=O)c1ccc(CN(Cc2ccc(Cl)cc2Cl)S(=O)(=O)c2ccc(F)c(C)c2)cc1 | inconclusive: 0.264% [signal inhibitor] | –

SMILES | IkBa stabilization activation | Potency
COc1ccc(C2CC(=O)N(Cc3ccc(F)cc3)c3ccccc3S2)cc1OC (stereo unspecified) | inconclusive: 9.57% [signal inhibitor] | –
COc1ccc(OC)c2sc(N3CCN(C(=O)c4ccc5c(c4)CCCC5)CC3)nc12 | inconclusive: 2.71% [signal inhibitor] | –
c1ccc(N2CCN(Cc3cccn3-c3nnc(N4CCN(C5CCCCC5)CC4)s3)CC2)cc1 | inconclusive: 0.0494% [signal inhibitor] | –
O=C(CN1CCN(Cc2cccc(Cl)c2)C1=O)NCc1ccc(F)cc1 | inconclusive: 2.01% [signal inhibitor] | –
N#CCCn1c(=O)c(-c2ccc(F)cc2)nc2cnc(N3CCOCC3)nc21 | inactive: -0.538% [at 11.4 µM, scaled: untreated 0%, proteasome inhibitor 100%] | –
Cc1nn(-c2ccccc2)c(-n2cccc2)c1C(=O)NCCc1ccc(Cl)cc1 | inconclusive: -1.38% [signal inhibitor] | –
Cc1ccc(CNC(=O)CC(C)CC2=NS(=O)(=O)c3ccccc3N2)cc1 (stereo unspecified) | inactive: -1.42% | –
CN1/C(=C\C(=O)COC(=O)CN2C(=O)C3CC=CCC3C2=O)C(C)(C)c2ccccc21 (stereo unspecified) | inconclusive: 2.41% [signal inhibitor] | –
COc1ccc(NC(=O)c2c(NCc3ccc(N(C)C)cc3)sc3c2CCC3)cc1 | inconclusive: -2.32% [signal inhibitor] | –
Cc1ccsc1CN(C(=O)c1oc2ccc(F)cc2c1C)C1CCS(=O)(=O)C1 (stereo unspecified) | inconclusive: 0.266% [signal inhibitor] | –
Cc1ccc(Nc2ncc(C(=O)N3CCN(c4ccc(F)cc4)CC3)c3ccccc23)cc1Cl | inconclusive: 1.71% [signal inhibitor] | –
CCOC(=O)c1c(-c2ccc(C)o2)csc1NC(=O)COC(=O)c1cccs1 | inconclusive: 2.3% [signal inhibitor] | –
CCc1ccc(NC(=O)c2ccc(F)c(S(=O)(=O)N3CCC4(CC3)OCCO4)c2)cc1 | inconclusive: 1.99% [signal inhibitor] | –
O=C(CS(=O)(=O)Cc1ccccc1)N1CCN(c2cccc(C(F)(F)F)c2)CC1 | inconclusive: 1.37% [signal inhibitor] | –
COc1ccc(C2CC(C(F)(F)F)n3ncc(C(=O)NCc4cccnc4)c3N2)cc1OC (stereo unspecified) | inactive: -3.73% | –
CCS(=O)(=O)c1ccc(O)c(Nc2cc(C)nc(SC)n2)c1 | inconclusive: -0.66% [signal inhibitor] | –
CCC(=O)C1=C(c2ccc(Cl)cc2)N(C(=O)CC)n2c(C)nnc2S1 | – | inconclusive: 31.6 µM [rising, single point]
CCOC(=O)CSc1nnc(CNC(=O)c2cccc(C)c2)n1-c1ccccc1OC | inconclusive: 8.47% [signal inhibitor] | –
CCC(C)Cn1c(/C=C/c2ccccc2)nc2ccccc21 (stereo unspecified) | inconclusive: -7.74% [signal inhibitor] | –
CCOC(=O)c1cccc(NC(=O)c2cc3c(=O)n(C)c4ccccc4c3n2C)c1 | inconclusive: 1.41% [signal inhibitor] | –
NS(=O)(=O)c1ccc(N=Nc2nc3[nH]c(=O)[nH]c(=O)c3[nH]2)cc1 | inactive: 0.208% [at 11.4 µM, scaled: untreated 0%, proteasome inhibitor 100%] | –
Cc1cc(C)cc(NC(=O)c2ccc3c(c2)nnn3C2CCCC2)c1 | inactive: -0.604% | –

SMILES | IkBa stabilization activation | Potency
Cc1ccc(NC2=C(CC(=O)O)C(c3ccc(F)cc3)N(c3ccc(C)cc3)C2=O)cc1 (stereo unspecified) | inconclusive: 5.87% [signal inhibitor] | –
CCN(CC)CCOC(=O)c1ccc(NC(=O)c2nn(C)c3c2COc2ccccc2-3)cc1 | inconclusive: 0.505% [signal inhibitor] | –
O=C1c2ccccc2NC2CCCCCN12 (stereo unspecified) | inactive: 1.36% | –
CC1CCN(S(=O)(=O)c2nnc(NC(=O)c3ccc(C(C)C)cc3)s2)CC1 | inconclusive: 10.8% [signal inhibitor] | –
O=C(c1cc(-c2cccc(Cl)c2)on1)N1CCN(c2ccccc2)CC1 | – | inconclusive: 1.26 µM [signal inhibitor, full curve]
CC(C)c1cnc2c(c1SCC(=O)Nc1ccc(OC(F)(F)F)cc1)c(=O)n(C)c(=O)n2C | inconclusive: -0.971% [signal inhibitor] | –
c1csc(-c2nc3ccccc3[nH]2)c1 | inactive: 1.6% | –
CCOc1ccc(C(=O)NCCc2sc(-c3ccc(OC)c(OC)c3)nc2C)cc1 | inactive: -2.4% | –
CCn1c(C(=O)NCc2ccc(OC(C)C)cc2)cc2oc3ccccc3c21 | inconclusive: -1.61% [signal inhibitor] | –
N#Cc1ccccc1-c1nc(NCCN2CCOCC2)c2ccccc2n1 | inactive: -0.159% [at 11.4 µM, scaled: untreated 0%, proteasome inhibitor 100%] | –
Cc1cccc(N2C(=O)C(CC(=O)Nc3ccc(Cl)cc3)N(Cc3ccco3)C2=O)c1 (stereo unspecified) | inconclusive: 1.89% [signal inhibitor] | –
Cc1oc(-c2cccc(Cl)c2)nc1CS(=O)(=O)CC(=O)NCc1ccccc1Cl | inconclusive: 1.79% [signal inhibitor] | –
Cc1ccc2c(c1)c(=O)c1ccccc1n2CCCC(=O)Nc1cc(Cl)ccc1C | inconclusive: 8.23% [signal inhibitor] | –
Cc1oc2ccc(O)c(CN3CCN(C)CC3)c2c1C(=O)Nc1cccc(Cl)c1C | inconclusive: 1.44% [signal inhibitor] | –
COc1cc2c(C#N)c(N3CCc4ccccc4C3)nc(N)c2c(N)n1 | inactive: 2.75% | –
COC(=O)c1ccc(C2c3c(oc4ccccc4c3=O)C(=O)N2c2nc(C)c(C(=O)OC)s2)cc1 (stereo unspecified) | inactive: 0.595% | –
COc1ccccc1NC(=O)c1cc(S(=O)(=O)N2CCN(c3ccccc3Cl)CC2)ccc1F | inconclusive: 2.08% [signal inhibitor] | –
O=C(CSc1nnc(-c2ccccn2)n1Cc1ccco1)c1ccc(Cl)cc1 | inactive: -2.21% | –
O=C(CN1CCN(c2nc(-c3ccccc3)cs2)CC1)NCc1ccc2c(c1)OCO2 | inconclusive: 3.89% [signal inhibitor] | –
CCOC(=O)N1CCN(c2ccc(C(=O)c3ccccc3)cc2F)CC1 | inconclusive: -2.89% [signal inhibitor] | –
Cc1ccccc1Cn1c2ccccc2c2cnn(CC(=O)NC(C)CCc3ccccc3)c(=O)c21 (stereo unspecified) | inconclusive: 1.48% [signal inhibitor] | –
CCOC(=O)c1ccc(N2C(=O)c3n[nH]c(C)c3C2c2ccccc2OC)cc1 (stereo unspecified) | inactive: 0.84% | –
